# Data reported in PubChem BioAssay AID1645886 (National Center for Advancing Translational Sciences (NCATS), 2021).
# Several values for one entry are separate records, joined by “and”; a condition that tells them apart may be missing. Identical values can stand only once. Among all 16,000 compounds or so, about 260 (1.6%) were called active. The inconclusive results got no clear call from the source; some entries with a clear call stand among them for comparison. Calls come from the whole dose curve; as a rule, active = well fitted inhibition curve with a large enough effect; inconclusive = small, poorly fitted or top-dose-only effect; inactive = no such curve, though single readings can be large or run the other way. Where the call is inconclusive, the potency comes from a doubtful curve fit. Some structures have more than one record in an assay (separate samples or runs), and their calls can disagree. Where a SMILES comes first, the peptide text is derived from it. Bridges are numbered along the chain shown (N, C = ends).
# Biological target: Rap guanine nucleotide exchange factor 4 (Homo sapiens) (UniProt Q8WZA2)
# Sequence of UniProt Q8WZA2 (Q8WZA2 whole entry, looked up): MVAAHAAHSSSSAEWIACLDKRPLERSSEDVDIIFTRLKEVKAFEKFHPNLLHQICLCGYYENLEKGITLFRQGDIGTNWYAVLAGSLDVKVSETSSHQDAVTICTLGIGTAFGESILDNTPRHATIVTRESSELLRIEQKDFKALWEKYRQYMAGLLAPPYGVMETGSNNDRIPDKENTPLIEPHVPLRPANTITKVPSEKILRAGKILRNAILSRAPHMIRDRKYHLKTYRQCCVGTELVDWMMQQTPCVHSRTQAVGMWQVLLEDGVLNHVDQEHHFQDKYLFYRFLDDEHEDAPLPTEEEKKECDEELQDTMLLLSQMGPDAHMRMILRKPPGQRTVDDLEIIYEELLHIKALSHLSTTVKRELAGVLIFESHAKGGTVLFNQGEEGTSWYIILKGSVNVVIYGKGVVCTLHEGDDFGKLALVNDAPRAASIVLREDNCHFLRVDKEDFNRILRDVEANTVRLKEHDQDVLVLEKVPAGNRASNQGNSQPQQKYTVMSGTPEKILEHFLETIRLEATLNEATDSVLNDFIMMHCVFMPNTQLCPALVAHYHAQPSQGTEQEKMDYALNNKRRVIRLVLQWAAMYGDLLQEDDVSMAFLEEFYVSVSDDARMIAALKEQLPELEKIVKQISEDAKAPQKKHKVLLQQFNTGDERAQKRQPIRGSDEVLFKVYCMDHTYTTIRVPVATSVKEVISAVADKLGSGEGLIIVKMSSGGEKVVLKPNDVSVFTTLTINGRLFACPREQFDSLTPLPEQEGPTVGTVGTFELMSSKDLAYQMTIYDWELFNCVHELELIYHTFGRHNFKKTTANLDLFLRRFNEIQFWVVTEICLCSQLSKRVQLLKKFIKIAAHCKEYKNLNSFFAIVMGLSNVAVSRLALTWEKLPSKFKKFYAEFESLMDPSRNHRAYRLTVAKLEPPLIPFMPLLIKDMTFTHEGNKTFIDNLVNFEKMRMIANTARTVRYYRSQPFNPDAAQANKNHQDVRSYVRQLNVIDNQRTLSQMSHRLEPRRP
# Assay: Validation qHTS for antagonist of cAMP-regulated guanine nucleotide exchange factor 4 (EPAC2); note: nearly all actives have a fitted effect of over 40% in size;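 for activity, negative = inhibition: 100% = activation by cAMP agonist control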
# Details: EPAC2 Rap1B BODIPY-GDP exchange, fluorescence; activity, negative = inhibition: at 112 µM (top of the series)
# In short: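 Fluorescent exchange read-out: 100 nM EPAC2 with 250 nM RAP1B–BODIPY-GDP and 50 uM GDP; BODIPY-GDP release lowers fluorescence. Read at 480/540 nm every 5 min for 30 min at room temperature; normalized to 6.5 mM cAMP.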
# Potency is the fitted concentration of half-maximal effect; tags give direction and shape of the fitted curve.
Compound,Potency,"activity, negative = inhibition"
CC1=CC2C(C(C)C)CCC(C)(O)C2CC1 (centres undefined),"inconclusive: 56.2 µM [inhibitor, partial curve, poor fit]",–
Oc1ccc(Cl)cc1Cc1cc(Cl)ccc1O,"inconclusive: 56.2 µM [inhibitor, partial curve, poor fit] and active: 89.1 µM",–
COCCn1c(=O)c(C)nc2cnc(N3CCN(C)CC3)nc21,inactive,–
NCCCC[C@H](NC(=O)[C@@H]1CCCN1C(=O)[C@@H]1CSSC[C@H](NC(=O)CNC(=O)CNC(=O)CN)C(=O)N[C@@H](Cc2ccc(O)cc2)C(=O)N[C@@H](Cc2ccccc2)C(=O)N[C@@H](CCC(N)=O)C(=O)N[C@@H](CC(N)=O)C(=O)N1)C(=O)NCC(N)=O (H-GGGCYFQNCPKG-NH2; disulfide 4-9),inactive,–
CCOC(=O)[C@@H](N)CS,"inconclusive: 79.4 µM [inhibitor, partial curve]",–
COc1ccc2oc(-c3ccccc3)c(OC)c(=O)c2c1,"inconclusive: 50.1 µM [inhibitor, partial curve]",–
CC(C)NC(=O)c1cn(C2CCC(NC(=O)C(C)(C)C)CC2)nn1 (centres undefined),"inconclusive: 100 µM [inhibitor, single point]",–
CC(C)NC(=O)N1CCC2(CC1)CCN(C(=O)c1cc(C(F)(F)F)cc(C(F)(F)F)c1)CC2,"inconclusive: 0.891 µM [inhibitor, full curve, poor fit]",–
COc1ccc(CN2CCN(C(C)=O)CC2)cc1OC1CCN(C(=O)c2ccc3[nH]c(C)c(C)c3c2)CC1,inactive,–
COc1cc(C(=O)NS(=O)(=O)c2ccccc2C)ccc1Cc1cn(C)c2ccc(NC(=O)OC3CCCC3)cc12,active: 79.4 µM,–
O=S(=O)(c1ccccc1)N1CCC2(CC1)CN(c1ccccc1)C2,"inconclusive: 39.8 µM [inhibitor, full curve, poor fit]",–
O=C(c1ccnc(-n2cnnn2)c1)N1CCOc2ccc(C(O)CCc3ccccc3)cc2C1 (centres undefined),inactive,–
C[C@@]12CC[C@@H]3c4ccc(O)cc4C[C@H](CCCCCCCCCS(=O)CCCC(F)(F)C(F)(F)F)[C@H]3[C@@H]1CC[C@@H]2O (some centres undefined),"inconclusive: 3.98 µM [inhibitor, full curve]",–
CCC1(C2CCN(C(=O)c3cccc(F)c3F)CC2)NC(=O)N(CCc2scnc2C)C1=O (centres undefined),inactive,–
CC1(C)S[C@@H]2C(C(=O)O)NC(=O)N2C1C(=O)O (some centres undefined),"inconclusive: 0.891 µM [inhibitor, full curve, poor fit]",–
COc1cc2nc(CC(O)c3nc4cc(OC)c(OC)cc4[nH]3)[nH]c2cc1OC (centres undefined),inactive,–
Cc1cn([C@H]2C[C@H](F)[C@@H](CO)O2)c(=O)[nH]c1=O,inactive,–
C=CC(C)(O)CC/C=C(\C)CCC=C(C)C (centres undefined),"inconclusive: 44.7 µM [inhibitor, partial curve]",–
CC(C)(C)OC(=O)N(Cc1ccco1)S(=O)(=O)c1ccccc1Br,"inconclusive: 6.31 µM [inhibitor, partial curve]",–
CCOC(=O)C[C@H]1c2ccccc2S(=O)(=O)N1Cc1cccc(C(F)(F)F)c1,active: 56.2 µM,–

Compound,Potency,"activity, negative = inhibition"
O=C1N=C(O)CN1/N=C\c1ccc(-c2ccc([N+](=O)[O-])cc2)o1,"inconclusive: 89.1 µM [inhibitor, partial curve]",–
Cc1c(C(N)=O)cc([N+](=O)[O-])cc1[N+](=O)[O-],"inconclusive: 15.8 µM [inhibitor, partial curve, poor fit]",–
COc1ccc(NC(=O)[C@@H]2CC=C[C@@H]3CCN(Cc4ccc(Cl)c(Cl)c4)C(=O)[C@@H]32)cc1,"inconclusive: 70.8 µM [inhibitor, partial curve, poor fit]",–
O=C(c1csnn1)N1CCC2(CCCN(c3ccccn3)C2)CC1,"inconclusive: 12.6 µM [inhibitor, partial curve]",–
CCN1CCN(C(=O)c2cnn(-c3ncc4c(n3)-c3ccccc3CCC4)c2COC)CC1,"inconclusive: 7.08 µM [inhibitor, full curve, poor fit]",–
Cc1cc(C)n(-c2cccc(C(=O)NCC3Cc4cc(Cl)cc(-c5cnccn5)c4O3)c2)n1 (centres undefined),"inconclusive: 89.1 µM [inhibitor, partial curve, poor fit]",–
CC(C)[C@H](CO)Nc1nc(Nc2cccc(Cl)c2)c2ncn(C(C)C)c2n1,"inconclusive: 50.1 µM [inhibitor, partial curve]",–
C/C=C(\C)C(=O)O[C@H]1CC(C)=C2C(=O)C=C(C)C2[C@@H]2OC(=O)[C@@](C)(OC(=O)C=C(C)C)C21 (some centres undefined),inactive,–
O=C(c1cc(C(F)(F)F)cc(C(F)(F)F)c1)N1CCC2(CC1)CN(c1ncccn1)C2,"inconclusive: 50.1 µM [inhibitor, partial curve, poor fit]",–
CC(=O)c1ccc(-c2ccc3c4c(ccc3c2)OC(CNC(=O)[C@@H]2CCCN2C(C)=O)C4)s1 (some centres undefined),"inconclusive: 7.94 µM [inhibitor, full curve, poor fit]",–
C=CCc1ccc(OC(=O)c2ccccc2)c(OC)c1,"inconclusive: 20 µM [inhibitor, full curve]",–
CN(C)c1cc2c(Nc3ccc4c(cnn4Cc4ccccc4)c3)ncnc2cn1,"inconclusive: 25.1 µM [inhibitor, single point]",–
COc1cc(-c2ccc(N=Nc3ccc4c(S(=O)(=O)O)cc(S(=O)(=O)O)c(N)c4c3O)c(OC)c2)ccc1N=Nc1ccc2c(S(=O)(=O)O)cc(S(=O)(=O)O)c(N)c2c1O,active: 28.2 µM,inactive: 30.1% [at 20.5 µM]
O=S1(=O)CCO[C@H]2Cc3ccccc3[C@H]2N1Cc1ccccc1,"inconclusive: 89.1 µM [inhibitor, partial curve, poor fit]",–
COc1cc(=O)n2c(c1C(=O)NCc1ccc3c(c1)OCO3)CCN(C(=O)c1ccc(C)cc1)CC2,inactive,–
COc1ccc(-c2nc3cnc(Nc4cccc(OC)c4)nc3n(CCC#N)c2=O)cc1,inactive,–
CO[C@H]1[C@H](NC(=O)c2ccco2)c2ccccc2C12CCN(Cc1cc(Cl)ccc1O)CC2,inactive,–
CC(=O)N1CCC2(CC1)CCN(c1cccc(-c3ccccc3)c1)CC2,"inconclusive: 14.1 µM [inhibitor, partial curve, poor fit]",–
CN1CCN2c3ccccc3Cc3ccccc3[C@@H]2C1,"inconclusive: 79.4 µM [inhibitor, partial curve]",–
N#C/C(=C1\SCC(c2ccccc2Cl)S1)n1ccnc1 (centres undefined),"inconclusive: 89.1 µM [inhibitor, single point]",–

Compound,Potency,"activity, negative = inhibition"
COc1cccc(CN(CC(=O)NCc2ccccc2)S(=O)(=O)CCl)c1,"inconclusive: 15.8 µM [inhibitor, partial curve, poor fit]",–
O=c1c(-c2ccc(F)cc2)nc2cnc(Oc3ccccc3)nc2n1C[C@H]1CCCO1,"inconclusive: 20 µM [inhibitor, full curve]",–
O=C(c1ccncc1)N1CCC[C@@]2(CCN(c3cccc(-c4ccccc4)c3)C2)C1,"inconclusive: 0.355 µM [inhibitor, full curve, poor fit]",–
N#CC(=C(/N)Sc1ccccc1N)/C(C#N)=C(/N)Sc1ccccc1N,"inconclusive: 50.1 µM [inhibitor, partial curve, poor fit]",–
COC(=O)[C@@H]1CCCN1Cc1ccc2c(c1)CN(Cc1cccc(Cl)c1)CCO2,inactive,–
COC(=O)C1=C(C)NC(C)=C(C(=O)O[C@H]2CCN(Cc3ccccc3)C2)[C@H]1c1cccc([N+](=O)[O-])c1,inactive,–
C=CCOc1ccc(CC(=O)O)cc1Cl,"inconclusive: 10 µM [inhibitor, partial curve]",–
CCCCC(CC)CN1CN(CC(CC)CCCC)CC(C)(N)C1 (centres undefined),"inconclusive: 14.1 µM [inhibitor, partial curve, poor fit]",–
CCCCN(CCCC)c1ccc(/C=C/c2ccnc3ccccc23)cc1,inactive,–
O=C(Nc1cccc(F)c1)N1CC2(CCN(C(=O)c3ccco3)CC2)C1,–,inconclusive: -35.9% [inhibitor]
C[C@H]1CCC(=O)N([C@H](CSc2ccccc2)Cc2ccccc2)CC1,"inconclusive: 39.8 µM [inhibitor, partial curve, poor fit]",–
COc1ccccc1-c1ccc2ncnc(N(C)C)c2c1,"inconclusive: 44.7 µM [inhibitor, partial curve, poor fit]",–
O=S(=O)(NCc1ccccc1Br)c1ccccc1Br,"inconclusive: 10 µM [inhibitor, partial curve, poor fit]",–
C/C1=C2N=C(/C=C3N=C(/C(C)=C4\[N-][C@@](C)([C@@H]5N=C1[C@](C)(CCC(=O)NCC(C)OP(=O)(O)O[C@H]1[C@@H](O)[C@@H](n6cnc7cc(C)c(C)cc76)O[C@@H]1CO)[C@H]5CC(N)=O)[C@@](C)(CC(N)=O)[C@@H]4CCC(N)=O)[C@@](C)(CC(N)=O)[C@@H]\3CCC(N)=O)C(C)(C)[C@@H]/2CCC(N)=O.CC(=O)O.[Co] (some centres undefined),active: 79.4 µM,–
c1ccc(CNc2ncncc2-c2ccc3c(c2)OCO3)cc1,"inconclusive: 50.1 µM [inhibitor, partial curve]",–
COc1ccccc1N1CCN(CC(O)COc2cccc3ccccc23)CC1 (centres undefined),"inconclusive: 4.47 µM [inhibitor, full curve, poor fit]",–
O=c1cnc2cnc(Oc3cccc(Cl)c3)nc2n1C[C@H]1CCCO1,"inconclusive: 56.2 µM [inhibitor, partial curve, poor fit]",–
CCCCCCCCCCCCOS(=O)(=O)O,"inconclusive: 44.7 µM [inhibitor, partial curve, poor fit]",–
